# Measurements reported in patent US11000038B2, “Pyridone compounds and agricultural and horticultural fungicides containing the same as active ingredients” (priority 2017, dated 2021).
# Legend:
# [1] = system: rice blast fungi (Magnaporthe grisea); assay type: in vivo; conditions: spray treatment of rice plants; control value=100{1-(n/3)}
# [2] = system: tomato late blight fungi (Phytophthora infestans); assay type: in vivo; conditions: spray treatment of tomato plants; control value=100{1-(n/3)}
# [3] = system: cucumber anthracnose fungi (Colletotrichum orbiculare); test: Test Example H: cucumber anthracnose, spray treatment of cucumber plants; conditions: 250 ppm spray, 2.5 ml/pot, cucumber Sagami Hanjiro; 6 to 10 days from inoculation
compound,measurement,setting,value
Cc1ccc(C)c(-n2cc(Cl)c(=O)c(Cl)c2-c2c(F)cc(F)cc2F)c1 [Compound 149],Test A control value class (rice blast),[1],H (H shows the control value of more than 50%)
same,Test F control value class (tomato late blight),[2],L (L shows the control value of 50% or less)
same,Test H control value class (cucumber anthracnose),[3],H (H shows the control value of more than 50%)
CCOC(=O)Cn1cc(Cl)c(=O)c(Br)c1-c1c(F)cc(F)cc1F [Compound 150],Test A control value class (rice blast),[1],L (L shows the control value of 50% or less)
same,Test F control value class (tomato late blight),[2],L (L shows the control value of 50% or less)
same,Test H control value class (cucumber anthracnose),[3],L (L shows the control value of 50% or less)
Cc1c(-c2c(F)cc(F)cc2F)n(C(C)C(C)C)cc(Br)c1=O (stereo not drawn) [Compound 151],Test A control value class (rice blast),[1],H (H shows the control value of more than 50%)
same,Test F control value class (tomato late blight),[2],L (L shows the control value of 50% or less)
same,Test H control value class (cucumber anthracnose),[3],H (H shows the control value of more than 50%)
Cc1cn(C(C)C(C)C)c(-c2c(F)cc(F)cc2F)c(C)c1=O (stereo not drawn) [Compound 152],Test A control value class (rice blast),[1],H (H shows the control value of more than 50%)
same,Test F control value class (tomato late blight),[2],L (L shows the control value of 50% or less)
same,Test H control value class (cucumber anthracnose),[3],H (H shows the control value of more than 50%)
CC1CCCCC1n1cc(Cl)c(=O)c(Cl)c1-c1c(F)cc(F)cc1F (stereo not drawn) [Compound 153],Test A control value class (rice blast),[1],H (H shows the control value of more than 50%)
same,Test F control value class (tomato late blight),[2],L (L shows the control value of 50% or less)
same,Test H control value class (cucumber anthracnose),[3],L (L shows the control value of 50% or less)
CC1CCCCC1n1cc(Cl)c(=O)c(Br)c1-c1c(F)cc(F)cc1F (stereo not drawn) [Compound 154],Test A control value class (rice blast),[1],H (H shows the control value of more than 50%)
same,Test F control value class (tomato late blight),[2],L (L shows the control value of 50% or less)
same,Test H control value class (cucumber anthracnose),[3],L (L shows the control value of 50% or less)
COc1cc(F)c(-c2c(C)c(=O)c(C)cn2C(C)C(C)C)c(F)c1 (stereo not drawn) [Compound 155],Test A control value class (rice blast),[1],H (H shows the control value of more than 50%)
same,Test F control value class (tomato late blight),[2],L (L shows the control value of 50% or less)
same,Test H control value class (cucumber anthracnose),[3],H (H shows the control value of more than 50%)
Cc1c(-c2c(F)cc(F)cc2F)n(C(C)C(C)C)cc(Cl)c1=O (stereo not drawn) [Compound 156],Test A control value class (rice blast),[1],H (H shows the control value of more than 50%)
same,Test F control value class (tomato late blight),[2],L (L shows the control value of 50% or less)
same,Test H control value class (cucumber anthracnose),[3],H (H shows the control value of more than 50%)
CC1CCCCC1n1cc(Br)c(=O)c(Cl)c1-c1c(F)cc(F)cc1F (stereo not drawn) [Compound 159],Test A control value class (rice blast),[1],L (L shows the control value of 50% or less)
same,Test F control value class (tomato late blight),[2],L (L shows the control value of 50% or less)
same,Test H control value class (cucumber anthracnose),[3],L (L shows the control value of 50% or less)
CC1CCCCC1n1cc(Br)c(=O)c(Br)c1-c1c(F)cc(F)cc1F (stereo not drawn) [Compound 160],Test A control value class (rice blast),[1],L (L shows the control value of 50% or less)
same,Test F control value class (tomato late blight),[2],L (L shows the control value of 50% or less)
same,Test H control value class (cucumber anthracnose),[3],L (L shows the control value of 50% or less)
O=c1c(Cl)cn(CC(F)F)c(-c2c(F)cc(F)cc2F)c1Br [Compound 161],Test A control value class (rice blast),[1],L (L shows the control value of 50% or less)
same,Test F control value class (tomato late blight),[2],L (L shows the control value of 50% or less)
same,Test H control value class (cucumber anthracnose),[3],L (L shows the control value of 50% or less)
Cc1cccc(-n2cc(Br)c(=O)c(Cl)c2-c2c(F)cc(F)cc2F)c1C [Compound 163],Test A control value class (rice blast),[1],H (H shows the control value of more than 50%)
same,Test F control value class (tomato late blight),[2],L (L shows the control value of 50% or less)
same,Test H control value class (cucumber anthracnose),[3],H (H shows the control value of more than 50%)
Cc1cccc(-n2cc(Br)c(=O)c(Br)c2-c2c(F)cc(F)cc2F)c1C [Compound 164],Test A control value class (rice blast),[1],H (H shows the control value of more than 50%)
same,Test F control value class (tomato late blight),[2],L (L shows the control value of 50% or less)
same,Test H control value class (cucumber anthracnose),[3],H (H shows the control value of more than 50%)
CCC(C)Cn1cc(Cl)c(=O)c(Br)c1-c1c(F)cc(F)cc1F (stereo not drawn) [Compound 165],Test A control value class (rice blast),[1],H (H shows the control value of more than 50%)
same,Test F control value class (tomato late blight),[2],H (H shows the control value of more than 50%)
same,Test H control value class (cucumber anthracnose),[3],H (H shows the control value of more than 50%)
CCC(C)Cn1cc(Br)c(=O)c(Cl)c1-c1c(F)cc(F)cc1F (stereo not drawn) [Compound 166],Test A control value class (rice blast),[1],H (H shows the control value of more than 50%)
same,Test F control value class (tomato late blight),[2],L (L shows the control value of 50% or less)
same,Test H control value class (cucumber anthracnose),[3],H (H shows the control value of more than 50%)
CCC(C)Cn1cc(Br)c(=O)c(Br)c1-c1c(F)cc(F)cc1F (stereo not drawn) [Compound 167],Test A control value class (rice blast),[1],H (H shows the control value of more than 50%)
same,Test F control value class (tomato late blight),[2],L (L shows the control value of 50% or less)
same,Test H control value class (cucumber anthracnose),[3],H (H shows the control value of more than 50%)
CCC(C)Cn1cc(Cl)c(=O)c(Br)c1-c1c(F)cc(OC)cc1F (stereo not drawn) [Compound 168],Test A control value class (rice blast),[1],H (H shows the control value of more than 50%)
same,Test F control value class (tomato late blight),[2],L (L shows the control value of 50% or less)
same,Test H control value class (cucumber anthracnose),[3],H (H shows the control value of more than 50%)
CCC(C)Cn1cc(Br)c(=O)c(Cl)c1-c1c(F)cc(OC)cc1F (stereo not drawn) [Compound 169],Test A control value class (rice blast),[1],H (H shows the control value of more than 50%)
same,Test F control value class (tomato late blight),[2],H (H shows the control value of more than 50%)
same,Test H control value class (cucumber anthracnose),[3],H (H shows the control value of more than 50%)
COc1cc(F)c(-c2c(Br)c(=O)c(Cl)cn2C2CCCCC2C)c(F)c1 (stereo not drawn) [Compound 170],Test A control value class (rice blast),[1],H (H shows the control value of more than 50%)
same,Test F control value class (tomato late blight),[2],L (L shows the control value of 50% or less)
same,Test H control value class (cucumber anthracnose),[3],L (L shows the control value of 50% or less)
COc1cc(F)c(-c2c(Cl)c(=O)c(Br)cn2C2CCCCC2C)c(F)c1 (stereo not drawn) [Compound 171],Test A control value class (rice blast),[1],L (L shows the control value of 50% or less)
same,Test F control value class (tomato late blight),[2],L (L shows the control value of 50% or less)
same,Test H control value class (cucumber anthracnose),[3],L (L shows the control value of 50% or less)
